{"source": "ChEMBL document CHEMBL4888484", "about": "“Replenishing the malaria drug discovery pipeline: Screening and hit evaluation of the MMV Hit Generation Library 1 (HGL1) against asexual blood stage Plasmodium falciparum ,using a nano luciferase reporter read-out” (2022)", "note": "About 540 (0.36%) of roughly 150,000 compounds showed an effect of 50% or more. The list shows a part of the results.", "data": [{"test_system": "Plasmodium falciparum", "assay": "Primary screen in NF54 nanoGlo assay, in single point, at 2uM, 72h; a lower Z score goes with more inhibition", "type": "functional, Erythrocyte", "details": "timepoint 72 hour", "units": {"% Inhibition": "%"}, "values": [{"compound": "COCc1ccc(C(=O)NCC[C@H]2CCOC2)s1", "% Inhibition": -5, "Z score": 0.97}, {"compound": "Cc1ccsc1CN(Cc1ccc(C#CCO)s1)CC(C)C", "% Inhibition": 7, "Z score": -0.99}, {"compound": "Cc1cccc2c(=O)n(C3CCN(S(=O)(=O)c4cc(F)cc(F)c4)CC3)cnc12", "% Inhibition": 2, "Z score": -0.17}, {"compound": "O=C(c1ccco1)N1CCC(Cc2nncn2Cc2ccccc2)CC1", "% Inhibition": 1, "Z score": -0.1}, {"compound": "CCn1c2c(c(=O)n3ncc(C(=O)Nc4ccc(C)c(C)c4)c13)CNCC2", "% Inhibition": -16, "Z score": 2.01}, {"compound": "CCN1CC2(CCN(C(=O)[C@@H]3CCCCN3C(=O)OC)CC2)CC1=O", "% Inhibition": -24, "Z score": 2.81}, {"compound": "CNC(=O)c1ccc(CNc2ncnc3nc(N)ccc23)cc1", "% Inhibition": 22, "Z score": -2.58}, {"compound": "Cc1cccc2c1NC(=O)[C@]21N2CCC[C@H]2[C@@H](C(=O)c2cc3ccccc3o2)[C@]12C(=O)Nc1ccccc12", "% Inhibition": -9, "Z score": 1.12}, {"compound": "COC[C@H](NS(=O)(=O)N1CCCC1)c1cccc(OC)c1", "% Inhibition": -11, "Z score": 1.18}, {"compound": "OC1=Nc2c(ncn2-c2cccnc2)[C@@H](c2cc(F)ccc2F)C1", "% Inhibition": -1, "Z score": 0.22}, {"compound": "CCCc1noc(-c2cccn3c(CC(=O)Nc4cccc(F)c4)nnc23)n1", "% Inhibition": -5, "Z score": 0.8}, {"compound": "Cc1c(Cl)cccc1NC(=O)COc1ccc(-c2cnccn2)cc1CN(C)C", "% Inhibition": 0, "Z score": -0.04}, {"compound": "O=C(Nc1c(C(=O)N(Cc2ccco2)C[C@H]2CCCO2)oc2ccccc12)C1CCCC1", "% Inhibition": -4, "Z score": 0.41}, {"compound": "O=C(c1ccc2c(c1)OCO2)N1CC(c2nc(-c3cccs3)no2)C1", "% Inhibition": -11, "Z score": 2.05}, {"compound": "CN(C)c1cc(CNC2CCCCC2O)ccn1", "note": "(stereo not drawn)", "% Inhibition": -2, "Z score": 0.23}, {"compound": "O=C(CN1CCN(c2ccccc2)C1=O)N1CC[C@H](Oc2ncccn2)C1", "% Inhibition": -24, "Z score": 3.77}, {"compound": "CCCC1(CCC)NC(=O)N(CC(=O)N2CCc3cc(OC)c(OC)cc3C2)C1=O", "% Inhibition": -1, "Z score": 0.1}, {"compound": "Cc1ccc(-n2nc3ccc(NC(=O)c4ccc5c(c4)OCO5)cc3n2)cc1", "% Inhibition": -4, "Z score": 0.45}, {"compound": "N#Cc1ccc(S(=O)(=O)Nc2ccc(-n3nn[nH]c3=O)cc2)cn1", "% Inhibition": -9, "Z score": 0.89}, {"compound": "Cn1cc(NC(=O)NCCc2csc(-c3ccccc3)n2)cn1", "% Inhibition": 3, "Z score": -0.49}, {"compound": "CC1CN(C(=O)C(C)c2cccnc2)CC(C)N1", "note": "(stereo not drawn)", "% Inhibition": -11, "Z score": 1.5}, {"compound": "C[C@H](Oc1ccccc1Br)C(=O)N(C)C", "% Inhibition": -4, "Z score": 0.49}, {"compound": "O=C(Cn1cncn1)NC1CCCCCC1", "% Inhibition": -6, "Z score": 0.87}, {"compound": "CCc1cnc(CNC(=O)N[C@@H](CC)CO)s1", "% Inhibition": 20, "Z score": -2.32}, {"compound": "O=C(NC(Cc1ccc2c(c1)OCO2)C(=O)N1CCCC1C(=O)O)c1ccccc1", "note": "(stereo not drawn)", "% Inhibition": -10, "Z score": 1.52}, {"compound": "Cc1nn(Cc2cccc(F)c2)c(C)c1NC(=O)c1cccc(COc2ccc(Br)cc2)c1", "% Inhibition": 37, "Z score": -1.8}, {"compound": "O=C(CN1C(=O)C2C3CC(c4ccccc4)C(C3)C2C1=O)Nc1nccs1", "note": "(stereo not drawn)", "% Inhibition": 7, "Z score": -0.89}, {"compound": "CN1C(=O)N(c2ccc(-n3ccnn3)cc2)C(=O)[C@H]1c1cc(F)c(F)c(F)c1", "% Inhibition": -11, "Z score": 1.14}, {"compound": "COC(=O)c1cc(S(=O)(=O)N2CCC[C@H]2C(=O)Nc2ccc(F)cc2C)cn1C", "% Inhibition": -11, "Z score": 2.16}, {"compound": "C#CCCC1(CCC(=O)N2CC(=O)NCC2(C)C)N=N1", "% Inhibition": -2, "Z score": 0.39}, {"compound": "COc1ccccc1OC1(C(=O)O)CCN(c2cc(C3CC3)ncn2)CC1", "% Inhibition": -6, "Z score": 0.78}, {"compound": "CCc1ccc(NC(N)=NCc2c(C)noc2C)cc1", "% Inhibition": -2, "Z score": 0.24}, {"compound": "COc1ccc(Nc2nc(N3CCN(c4nc(-c5ccccc5)cs4)CC3)nc3ccccc23)c(OC)c1", "% Inhibition": -7, "Z score": 1.02}, {"compound": "CC[C@H](OC)c1n[nH]c(=O)n1-c1ccc2ccccc2c1", "% Inhibition": 5, "Z score": -0.83}, {"compound": "COc1ccc(-c2cnc3ncnn3c2N2CCN(C(=O)Nc3ccccc3OC)CC2)cc1", "% Inhibition": -14, "Z score": 1.9}, {"compound": "CC1(C)CCC(NC(=O)COC[C@H]2CCCO2)CC1", "% Inhibition": -11, "Z score": 1.45}, {"compound": "CCC(=O)Nc1ccc(Oc2c(C)c(C(=O)O)nn2-c2ccccc2C)c(S(=O)(=O)N[C@@H](C)CC)c1", "% Inhibition": -10, "Z score": 0.97}, {"compound": "NC(=O)N1CCC[C@H](C(=O)N2CCc3c(Cl)cccc3C2)C1", "% Inhibition": -9, "Z score": 1.89}, {"compound": "O=C(Cc1ccnc(O)c1Br)N1CC2(CCC2)c2ccccc21", "% Inhibition": -15, "Z score": 2.5}, {"compound": "COCCNC(=O)CN(C)C(=O)c1cccc(C)c1Cl", "% Inhibition": -2, "Z score": 0.26}, {"compound": "CCN1CCN([C@H](c2ccccc2Cl)c2oc3ccccc3c2NC(=O)c2ccccc2)CC1", "% Inhibition": -10, "Z score": 1.55}, {"compound": "CC(=O)Nc1ccc(S(=O)(=O)NC2(c3nc(C)no3)CCCCC2)cc1", "% Inhibition": -3, "Z score": 0.55}, {"compound": "CC(C)c1nnc(CNc2ncc(C#N)cc2Cl)n1C", "% Inhibition": -9, "Z score": 1.17}, {"compound": "O=C(NC(C1CCCCC1)C(F)(F)F)N[C@H]1CCO[C@@H]1c1cccnc1", "note": "(stereo partly drawn)", "% Inhibition": -12, "Z score": 1.9}, {"compound": "COCCCNc1cc(C)c(F)cc1C(N)=O", "% Inhibition": -14, "Z score": 2.22}, {"compound": "CC(=O)N1C[C@@H]2OCC(=O)N(CC3CCCCC3)[C@@H]2C1", "% Inhibition": 3, "Z score": -0.55}, {"compound": "COCCOCc1nc([C@@H]2CCCN2S(=O)(=O)c2ccc(F)c(C)c2)no1", "% Inhibition": -2, "Z score": 0.31}, {"compound": "C[C@@H](c1ccc2c(c1)OCCO2)N(C)Cc1cc(C2CC2)n[nH]1", "% Inhibition": -8, "Z score": 1.24}, {"compound": "CO[C@H]1COC[C@@H]1NS(=O)(=O)N1CCCCCC1", "% Inhibition": 0, "Z score": 0.03}, {"compound": "COc1cc(Br)c(F)cc1S(=O)(=O)N[C@@H](C)C#N", "% Inhibition": 0, "Z score": 0.02}, {"compound": "Cc1ccc2c(c1)[C@@H](NC(=O)N1C[C@@H](c3nnc(C)o3)O[C@@H](C)C1)[C@H](C)C2", "% Inhibition": -3, "Z score": 0.4}, {"compound": "CNc1nc(C)cc(N2CCC[C@@]3(CCC(=O)N(Cc4cccnc4)C3)C2)n1", "% Inhibition": -12, "Z score": 1.17}, {"compound": "CNc1ccnc(N2CC(=O)N[C@H](C)C2)n1", "% Inhibition": -8, "Z score": 1.53}, {"compound": "CCn1ncnc1CN(C/C=C/c1ccccc1)C1CC1", "% Inhibition": 1, "Z score": -0.27}, {"compound": "Cc1nc(NC[C@@]2(C)CC2(F)F)cc(-c2cccnc2)n1", "% Inhibition": 1, "Z score": -0.1}, {"compound": "CC(C)(C)C1CS(=O)(=O)CCN1C(=O)[C@H]1CCCO1", "note": "(stereo partly drawn)", "% Inhibition": -4, "Z score": 0.49}, {"compound": "Cc1cnc(CN(C)CC2(CO)CCC2)cn1", "% Inhibition": -12, "Z score": 1.61}, {"compound": "C(#Cc1cccs1)c1cnc2ccccc2c1", "% Inhibition": -17, "Z score": 2.02}, {"compound": "Cc1nnc2n1[C@@H](C)CN(C(=O)CCc1ccnn1C)C2", "% Inhibition": -2, "Z score": 0.4}, {"compound": "NC(=O)[C@]1(c2ccccc2)CCN(Cc2ccccc2F)C1", "% Inhibition": -6, "Z score": 0.61}, {"compound": "CC(C)[C@H](NC(=O)CCc1cccc(F)c1F)C(=O)O", "% Inhibition": -9, "Z score": 1.21}, {"compound": "CC(C)CCN[C@H]1[C@H](O)[C@@H](n2cnc3ccccc32)[C@@H]2OC[C@H]1O2", "% Inhibition": -5, "Z score": 0.81}, {"compound": "Cc1ncsc1CCS(=O)(=O)CC(C)C", "% Inhibition": 7, "Z score": -1}, {"compound": "CCn1ncc(Br)c1C(=O)Nc1cnn(CC)c1C(=O)N1CCOCC1", "% Inhibition": -8, "Z score": 1.26}, {"compound": "CCn1cc(CCN2CCCS2(=O)=O)cn1", "% Inhibition": -7, "Z score": 1.14}, {"compound": "CNS(=O)(=O)c1ccc2c(c1)N(Cc1ccc3cn[nH]c3c1)CC2", "% Inhibition": -10, "Z score": 1.04}, {"compound": "Cc1nnc(NC2CCN(c3ncccn3)CC2)c(C#N)c1C", "% Inhibition": -8, "Z score": 0.92}, {"compound": "CN(C)CCN(C)C(=O)Nc1cc(F)c(C(F)(F)F)c(F)c1", "% Inhibition": -3, "Z score": 0.46}, {"compound": "O=C(NCc1cccc(C(F)(F)F)c1)c1nnn2c1c(=O)[nH]c1cc(F)ccc12", "% Inhibition": 6, "Z score": -1.11}, {"compound": "O=C(Nc1cc(-c2ccccn2)no1)c1cc(F)ccc1F", "% Inhibition": -10, "Z score": 0.97}, {"compound": "CCc1n[nH]c2c1CN(CCC(=O)NCc1cccs1)CC2", "% Inhibition": -6, "Z score": 1.17}, {"compound": "COCCC1(CNC(=O)Nc2nc3c(s2)CCCC3)CC1", "% Inhibition": -4, "Z score": 0.74}, {"compound": "O=C(NCc1ccc(Br)cc1)C1CCN(c2cnc3nccnc3c2)CC1", "% Inhibition": -4, "Z score": 0.71}, {"compound": "COc1ccc(CCC(=O)N2CCC[C@H]2c2ccncc2)cc1Cl", "% Inhibition": -15, "Z score": 2.22}, {"compound": "N#Cc1ncn(CC(=O)Nc2nc(-c3ccccc3)cs2)c1C#N", "% Inhibition": -10, "Z score": 0.97}, {"compound": "CN(Cc1ccccc1OC(F)(F)F)CN1C(=O)CC(C)(C)C1=O", "% Inhibition": -10, "Z score": 1.32}, {"compound": "CCC[C@H]1CN(C(C)=O)C[C@@H]1NC(=O)CN1C(=O)NC(=O)C1(C)C", "% Inhibition": -23, "Z score": 4.45}, {"compound": "NC(=O)CC[C@H]1CCCN(C(=O)c2nn(-c3cccc(Br)c3)c3c2CCCC3)C1", "% Inhibition": -3, "Z score": 0.35}, {"compound": "CCCc1nc(NC[C@H]2CC[C@H](CO)CC2)no1", "% Inhibition": -12, "Z score": 1.18}, {"compound": "Cc1cc(C(=O)NCc2cccnc2N2CCOCC2)no1", "% Inhibition": -9, "Z score": 1.4}, {"compound": "Clc1ccc(CN2CCCC[C@@H]2CCn2ccnc2)s1", "% Inhibition": -1, "Z score": 0.09}, {"compound": "CN(C)c1ccc(CN2CC[C@H](n3cc(C4CC4)nn3)C2)cn1", "% Inhibition": -1, "Z score": 0.1}, {"compound": "Cc1cccc(N2CCN(C(=O)Nc3cn(CC(C)C)c(=O)c4ccccc34)CC2)c1C", "% Inhibition": 8, "Z score": -1.44}, {"compound": "Cn1cnnc1CC1CCN(C(=O)c2ccccc2)CC1", "% Inhibition": -7, "Z score": 0.78}]}]}
